# Results published in PubChem BioAssay AID445 (National Center for Advancing Translational Sciences (NCATS), 2006).
# Hit rate of the full screen: of about 110,000 compounds, about 40 (0.04%) were called active. This list was built around the results that the source calls inconclusive (neither active nor inactive); the mix of calls is not that of the screen. The call rests on the fitted dose curve; in most records, active means well fitted curve in the direction sought with a large enough effect in the signal ratio (not every such curve was filed as active); inconclusive means small, poorly fitted or top-dose-only effect, or a change in a side signal; inactive means flat fitted curve, though single readings scatter; the % refers to the signal ratio. Potencies beside an inconclusive call are fits to weak or partial responses and may not hold up.
# Assay: IkB Signaling;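 on IkBa stabilization activation: 0% = basal untreated cells and 100% = reference inhibitor full response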
# Conditions: ABC-DLBCL IkBa-CBG/CBR dual luciferase ratio (green luciferase fused to IkBa over red control in OCI-Ly3 lymphoma cells), 4 h; IkBa stabilization activation: at 57.1 µM (top of the series), scaled: untreated 0%, proteasome inhibitor 100% unless noted
# Outline: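 In this assay, an IκBα–CBG68 fusion accumulates when IKK-driven degradation is blocked; native CBR normalizes for cell number. OCI-Ly3 cells were treated 4 h with compound and doxycycline, then green and red light read after Chroma-Glo addition.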
# Potency means the concentration at half of the fitted maximal effect.
SMILES,IkBa stabilization activation,Potency
Cc1ccc(CNC(=O)c2nc(SCc3ccccc3C)ncc2Cl)cc1,inconclusive: -0.489% [signal inhibitor],
Cn1c(=O)[nH]c(=O)c2c1nc(CN1CCN(c3cccc(Cl)c3)CC1)n2Cc1ccccc1Cl,inactive,
Nc1ccc(S(=O)(=O)NCc2nccs2)cc1,"inactive: 1.93% [at 11.4 µM, scaled: untreated 0%, proteasome inhibitor 100%]",
N#Cc1cc2c(nc1SCc1cccnc1)CCCCC2,inactive,
COc1ccc(C)cc1NC(=O)C(Cc1ccccc1)NS(=O)(=O)c1cccs1 (stereo unspecified),inactive,
CCOC(=O)c1ccc(CN(Cc2ccccc2C)S(=O)(=O)c2ccc(F)c(C)c2)cc1,inactive,
COc1ccc(Nc2ncnc3c2cnn3-c2ccc(C)cc2)cc1Cl,inconclusive: 0.639% [signal inhibitor],
CCC(=O)N1CCc2cc(Br)cc(S(=O)(=O)CCC(=O)NCc3cccc(OC)c3)c21,inconclusive: 2.05% [signal inhibitor],
CC1C(=O)N2CCCc3cc(S(=O)(=O)N4CCC(C(N)=O)CC4)cc1c32 (stereo unspecified),inconclusive: 1.49% [signal activator],
COc1ccccc1Nc1nn2c(=O)c3ccc(C(=O)NCCC4=CCCCC4)cc3nc2s1,inconclusive: -1.21% [signal inhibitor],
Cc1onc(-c2ccccc2)c1C(=O)OCC(=O)c1ccccc1,inconclusive: 3.64% [signal inhibitor],
COc1cccc(CNC(=O)c2cnc(N3CCCCC3)c3ccccc23)c1,inconclusive: 7.76% [signal inhibitor],
c1ccc(-c2nc3ccccc3o2)nc1,inactive,
COc1ccc(-c2onc(C)c2C)cc1S(=O)(=O)NCC1CCN(Cc2cc(C)ccc2C)CC1,inconclusive: 3.2% [signal inhibitor],
O=C(c1ccco1)N1CCC[C@@]2(CCN(c3ccccn3)C2)C1,"inactive: 0.669% [at 11.4 µM, scaled: untreated 0%, proteasome inhibitor 100%]",
O=C(CSCc1cnn(-c2ccccc2)c1-n1cccc1)NCc1cccs1,inconclusive: 2.34% [signal inhibitor],
C=CCn1c(=O)c(C(=O)NCCc2ccccc2)c(O)c2ccccc21,inactive,
c1ccc(C(Cc2nc(-c3ccccn3)no2)c2ccccc2)cc1,inconclusive: 14.9% [signal inhibitor],
COc1cccc(-n2c(SCC(=O)Nc3cc(C)on3)nc3c([nH]c4ccccc43)c2=O)c1,inactive,
Cc1ccc(-n2c(=O)c3c(cnn3C)n(CC(=O)Nc3ccccc3C)c2=O)cc1,inconclusive: -4.45% [signal inhibitor],
COc1ccc2nc(C)cc(Nc3ccc(Cl)c(Cl)c3)c2c1,inconclusive: 0.85% [signal inhibitor],
O=C(Cn1c(=O)oc2cc(S(=O)(=O)N3CCCCC3)ccc21)NCc1ccc(Cl)cc1,inconclusive: -0.653% [signal inhibitor],
CCCCn1c(=NC(=O)c2cc3ccccc3o2)c(C(=O)OCC)cc2c(=O)n3ccccc3nc21,inconclusive: 2.76% [signal inhibitor],
CCCn1nc(NS(=O)(=O)c2ccccc2)c2cc3ccccc3nc21,inconclusive: -4.7% [signal inhibitor],

SMILES,IkBa stabilization activation,Potency
O=C(Oc1ccc(Cl)cc1)c1cc(-c2ccc3c(c2)OCCO3)on1,inactive,
COc1ccc(S(=O)(=O)N2CCSC2c2ccc(OC)c(OC)c2)cc1 (stereo unspecified),inconclusive: 3.23% [signal inhibitor],
CCCCn1nnc(NC(=O)c2sc3cc(Cl)ccc3c2Cl)n1,inactive,
CCOC(=O)c1ccccc1NC(=O)CSc1nc2c(c(=O)n(C)c(=O)n2C)n1C,inconclusive: 7.3% [signal activator],
Cc1cc(C)c(C)c(OCc2nc(-c3cccnc3)no2)c1,inactive,
CN(c1ccc(OCc2nnc(-c3ccccc3)o2)cc1)S(=O)(=O)c1ccccc1,inconclusive: 6.26% [signal inhibitor],
COc1ccc(CCn2c(C)cc(C(=O)CSc3nnc(N)s3)c2C)cc1,inconclusive: 10.1% [signal inhibitor],
CCOC(=O)c1sc2nc3c(cc2c1N)COC(C)(C)C3,inactive,
O=C(Nc1ccc(F)c(Cl)c1)C1CCCN(c2cnccn2)C1 (stereo unspecified),inconclusive: -1.48% [signal inhibitor],
COc1ccc(CC2C(=O)Nc3ccc(Br)cc32)cc1OC (stereo unspecified),inconclusive: 0.0599% [signal inhibitor],
C=CCNc1oc(-c2cccc3ccccc23)nc1C#N,inactive,
O=C(Cn1c(=O)oc2cc(S(=O)(=O)N3CCc4ccccc43)ccc21)NC1CCCC1,inactive,
COc1ccc(S(=O)(=O)NCC(c2ccco2)N2CCN(c3ccc(F)cc3)CC2)cc1C (stereo unspecified),inconclusive: -0.351% [signal inhibitor],
CC(=O)N1CCCC1c1nc2ccccc2n1Cc1ccccc1C (stereo unspecified),inconclusive: -1.44% [signal inhibitor],
CCc1ccc(NC(=O)CC2C(=O)N(c3cccc(C)c3)C(=O)N2Cc2ccco2)cc1 (stereo unspecified),inconclusive: 1.76% [signal inhibitor],
CCC(C)n1c(-c2cccs2)nc2nc3ccccc3nc21 (stereo unspecified),inactive,
COc1ccc(-c2cc(C(=O)N3CCc4ccccc4C3)no2)cc1OC,inconclusive: 12.4% [signal inhibitor],
c1ccc(-c2nc3nc4ccccc4nc3n2Cc2ccco2)cc1,,"inconclusive: 25.1 µM [signal inhibitor, partial curve]"
CC1CCN(S(=O)(=O)c2ccc3c(ccn3CCC(=O)NCc3ccc(N(C)C)cc3)c2)CC1,inconclusive: 3.21% [signal inhibitor],
COc1cccc2cc(C(=O)NCCc3c(C)[nH]c4ccc(F)cc34)c(=O)oc12,inconclusive: 7.06% [signal inhibitor],
O=C(Nc1cccc(Br)c1)c1cc2ccccc2o1,inconclusive: 8.38% [signal inhibitor],
O=C(OCn1nnc2ccccc2c1=O)c1ccc2ncsc2c1,inactive,
COc1ccc(S(=O)(=O)N(CC(=O)Nc2cccnc2)c2ccc(Cl)cc2)cc1,inconclusive: 9.27% [signal inhibitor],
Clc1cccc(-n2ncc3c(NCCCn4ccnc4)ncnc32)c1,inconclusive: 1.26% [signal inhibitor],

SMILES,IkBa stabilization activation,Potency
COc1ccc(NC(=O)Cn2c(=O)ccc3cc(S(=O)(=O)N4CCCC4)ccc32)cc1Cl,inconclusive: 5.86% [signal inhibitor],
CC(C)(C)c1ccc(-c2nc(SCC(=O)Nc3ccccc3F)n3[nH]c(=O)cc3n2)cc1,inactive,
CCOc1ccc(C(=O)Nc2nnn(CC)n2)cc1,inactive,
Cc1ccc2nc(-c3ccc(SCC(=O)O)nc3)[nH]c2c1,inactive,
O=C(CCOc1ccccc1)N(Cc1cccnc1)c1nc2c(F)cccc2s1,inconclusive: 5.45% [signal inhibitor],
CCCCn1c(NCc2ccc(N(C)C)cc2)nc2ccccc21,inconclusive: 13.3% [signal inhibitor],
CCN1CCc2nc3sc(C(=O)c4ccc(F)cc4)c(N)c3cc2C1,inconclusive: -1.86% [signal inhibitor],
Cc1ccc(C(C)C)c(OCC(=O)Nc2ccc(Cl)cn2)c1,inconclusive: 7.1% [signal inhibitor],
COc1ccc(NC(=O)c2c(NCc3cccc(OC)c3)sc3c2CCCC3)cc1,inconclusive: 2.18% [signal inhibitor],
Cc1ccc2occ(CC(=O)N(Cc3ccc(C(C)C)cc3)C3CCS(=O)(=O)C3)c2c1 (stereo unspecified),inconclusive: 1.38% [signal inhibitor],
O=C(CCC1N=C2c3ccccc3N=C(SCc3ccccc3F)N2C1=O)NCc1ccc(F)cc1 (stereo unspecified),inconclusive: -0.777% [signal inhibitor],
CCOC(=O)c1ccc(-n2[nH]c(-c3ccccc3)cc2=O)cc1,inconclusive: -1.63% [signal inhibitor],
c1ccc(Nc2ncnc3ccc(-c4ccoc4)cc23)cc1,"inactive: 1.82% [at 11.4 µM, scaled: untreated 0%, proteasome inhibitor 100%]",
Cc1ccc(-c2nc(N)n(C(=O)Cc3ccccc3)n2)cc1,inconclusive: 11.1% [signal inhibitor],
CC1=C(c2ccc(Cl)cc2)S(=O)(=O)N=C1N1CCC(C(=O)NCc2ccccc2F)CC1,inconclusive: 3.69% [signal inhibitor],
CCCCCCOC(=O)Sc1nc2ccccc2o1,inconclusive: -3.65% [signal inhibitor],
COc1ccc(CCNc2nc3c(-c4cccc(C)c4)nnn3c3ccccc23)cc1OC,inconclusive: 5.24% [signal inhibitor],
O=C(Nc1ccc2c(c1)OCO2)C1CCN(Cc2cnn(-c3ccccc3)c2-n2cccc2)CC1,inconclusive: 12.7% [signal inhibitor],
COc1ccc(NC(=O)COCc2cc(-c3cccs3)on2)cc1,inactive,
Cc1ccccc1C1C=C(c2ccc(Cl)cc2)Nc2nnnn21 (stereo unspecified),inconclusive: -1.29% [signal inhibitor],
Cc1nn(-c2ccc(N3CCCCC3)nn2)c(C)c1CCC(=O)NCc1ccccc1F,inconclusive: 4.57% [signal inhibitor],
COc1ccc(-n2nc3c(N4CCCC(C(=O)NCCc5ccc(C)cc5)C4)nnc(C)c3c2C)cc1 (stereo unspecified),inconclusive: -2.87% [signal inhibitor],
COCCNC(=O)C(=O)NCC(c1cccnc1)N1CCN(c2ccccc2F)CC1 (stereo unspecified),inconclusive: 1.62% [signal inhibitor],
